This passage reports mutation enrichment score results from the supplement of paper PMC11369174, “Proteome-scale characterisation of motif-based interactome rewiring by disease mutations” (Molecular Systems Biology, 2024).

The list shows a part of the results. Single values of this set are uncertain.

To fix the notation:
T1: MSN_FERM_1_P26038_1_322
T1 chain: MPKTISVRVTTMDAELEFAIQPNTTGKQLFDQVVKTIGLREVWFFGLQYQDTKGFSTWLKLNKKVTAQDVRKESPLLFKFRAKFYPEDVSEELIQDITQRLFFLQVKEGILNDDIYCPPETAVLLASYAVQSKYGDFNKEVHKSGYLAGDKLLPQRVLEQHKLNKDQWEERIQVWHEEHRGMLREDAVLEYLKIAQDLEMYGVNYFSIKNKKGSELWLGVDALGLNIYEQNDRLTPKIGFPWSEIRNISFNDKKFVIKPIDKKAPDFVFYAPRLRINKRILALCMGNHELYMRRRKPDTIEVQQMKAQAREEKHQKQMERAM

T2: RDX_FERM_1_P35241_5_295
T2 chain: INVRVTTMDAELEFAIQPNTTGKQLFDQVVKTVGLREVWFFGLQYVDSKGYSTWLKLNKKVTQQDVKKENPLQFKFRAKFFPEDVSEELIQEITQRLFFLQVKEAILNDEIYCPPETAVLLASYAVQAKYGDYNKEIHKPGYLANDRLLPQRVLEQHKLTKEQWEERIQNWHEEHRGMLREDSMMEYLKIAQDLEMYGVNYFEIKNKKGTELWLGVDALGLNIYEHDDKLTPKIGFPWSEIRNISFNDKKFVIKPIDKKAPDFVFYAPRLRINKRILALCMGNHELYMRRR

The target of the first assay is NEDD4_WW_2_P46934_765_803. Put plainly: mutation enrichment score (mutant vs wild-type peptide binding to bait); baits are purified protein domains named by gene / domain / UniProt id / residues; peptides come from disordered regions of human proteins; higher = mutation enhances binding relative to wild type. Conditions: number of wild-type / mutant comparisons summed (bounds the score): 6; paper call: no_effect; wild-type window: ….
NEDD4_WW_2_P46934_765_803, sequence (chain, as listed by the source): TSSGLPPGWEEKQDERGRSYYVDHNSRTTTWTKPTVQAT
Take DSDSDTDSSQEENEVTEHTPSLRPLASVSAQSFGALSESRS [L311S L311S]: the mutation enrichment score was -2.
With QVLTVLFFLEVVGFKNLALMASSSSLSRNPPSYIAPYSCIL [D711A D711A], the mutation enrichment score is -2.8.
Same read-out and setting: as for GGLLNNPLSAATGNTTTASSPGEPEDSTSKGEEKGNENEDE [Q2833P Q2833P], the figure is -4; as for QQHTGPAGTMVPPSYSSQPYHSTHPSTNPTLVDPTRHLQQR [Q1974H Q1974H], 0.25.

The next assay has as its target NCK1_SH3_1_P16333_5_60. Described as above. As to conditions: number of wild-type / mutant comparisons summed (bounds the score): 12; paper call: no_effect; wild-type window: ….
With SRIQNPVAFLSSVLPSLPAITPTNAMGLPRSAPSMPSQGLA [P841T P841T], the mutation enrichment score was -1.

The target in the next assay is Src_SH3__P12931_87_144. The assay is described as above. As to conditions: number of wild-type / mutant comparisons summed (bounds the score): 12; paper call: no_effect; wild-type window: ….
Turning to SRIQNPVAFLSSVLPSLPAITPTNAMGLPRSAPSMPSQGLA [P841T P841T], the mutation enrichment score is -2.9.

Another assay deals with OXSR1___O95747_434_527. The assay is described as above. As to conditions: number of wild-type / mutant comparisons summed (bounds the score): 6; paper call: no_effect; wild-type window: ….
With QGTGRPGQPPGPKVLRKLPGWLVTVVEEKELVRRRRQQRGA [R2753W R2753W], the mutation enrichment score was 2.
Turning to KSVSEGHLKRNIVVKTVEMRAGEVIKESKQEHKDVM [D417A D417A], the mutation enrichment score is -1.9.
Same read-out and setting: as for TSVVDSEPVRFTVKVTGEPKTEITWWFEGEILQDGEDYQYI [P611T P611T], the figure is -3.6; as for TKSVSEGHLKRNIVVKTVEMGDGEVIKESKQEHKDVM [R416G R416G], -2.
The same measure, in the same setting: the same measure for TKSVSEGHLKRNIVVKTVEMWDGEVIKESKQEHKDVM [R416W R416W]: -1.8.

The target of a further assay is NCK1_SH3_1_P16333_5_60. The assay is described as above. Conditions: number of wild-type / mutant comparisons summed (bounds the score): 6; paper call: no_effect; wild-type window: ….
Regarding SGFLNNSWPLPQPPSPMPYACCQMAAAAAAAAAAAAAAGPG [S217C S217C], the mutation enrichment score was determined as 0.

The next assay concerns the target Src_SH3__P12931_87_144. The assay is described as above. Conditions: number of wild-type / mutant comparisons summed (bounds the score): 6; paper call: no_effect; wild-type window: ….
As for SGFLNNSWPLPQPPSPMPYACCQMAAAAAAAAAAAAAAGPG [S217C S217C], the mutation enrichment score came to 0.

In the next assay the target is USP7_MATH-TRAF__Q93009_53_206. The description is as above. As to conditions: number of wild-type / mutant comparisons summed (bounds the score): 5; paper call: no_effect; wild-type window: ….
USP7_MATH-TRAF__Q93009_53_206, sequence (chain, as listed by the source): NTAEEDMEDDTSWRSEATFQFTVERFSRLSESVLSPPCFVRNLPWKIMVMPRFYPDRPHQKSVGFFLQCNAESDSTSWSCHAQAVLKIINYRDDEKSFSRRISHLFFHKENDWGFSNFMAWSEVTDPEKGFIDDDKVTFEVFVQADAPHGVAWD
With QVLTVLFFLEVVGFKNLALMASSSSLSRNPPSYIAPYSCIL [D711A D711A], the mutation enrichment score came out at 2.6.
Still for that read-out and setting: the same measure for SAQSAESSSVAMTPTYMDSPGKDGAFFMEFVRSPRTASSAF [R1087G R1087G]: 4.

The next assay deals with SMURF2_WW_3_Q9HAU4_298_330. The assay is described as above. As to conditions: number of wild-type / mutant comparisons summed (bounds the score): 6; paper call: no_effect; wild-type window: ….
For QQHTGPAGTMVPPSYSSQPYHSTHPSTNPTLVDPTRHLQQR [Q1974H Q1974H], the mutation enrichment score amounted to 0.12.

Another assay addresses NEDD4_WW_2_P46934_765_803. The assay is described as above. As to conditions: number of wild-type / mutant comparisons summed (bounds the score): 12; paper call: diminished; wild-type window: ….
Take FYIGWGHKYSPDNYTPPVPPSVYQEYPSGPEITEMDDPSVE [P664S P664S]: the mutation enrichment score is -8.
Turning to SAPPLSHTPSSDFQPPYFPPRYQPLPYHQSQDPYSHVNDPY [P73R P73R], the mutation enrichment score is -12.

Another assay concerns the target SMURF2_WW_3_Q9HAU4_298_330. The description is as above. As to conditions: number of wild-type / mutant comparisons summed (bounds the score): 12; paper call: no_effect; wild-type window: ….
As for FYIGWGHKYSPDNYTPPVPPSVYQEYPSGPEITEMDDPSVE [P664S P664S], the mutation enrichment score was -3.
In the case of SPNTGPYPSEQALPIPGTPPRNYDSLRLQPLDVIESDSEGD [P618R P618R], the mutation enrichment score is -2.

The next assay concerns the target WWTR1_WW__Q9GZV5_122_160. Described as above. As to conditions: number of wild-type / mutant comparisons summed (bounds the score): 12; paper call: diminished; wild-type window: ….
For the molecule FYIGWGHKYSPDNYTPPVPPSVYQEYPSGPEITEMDDPSVE [P664S P664S], the mutation enrichment score is -7.
With SAPPLSHTPSSDFQPPYFPPRYQPLPYHQSQDPYSHVNDPY [P73R P73R], the mutation enrichment score was -7.
On the same count and under the same terms, as for HGKEDIKVIPNPPPDHWALVRGLPAYVAQNGLICNIMNAPA [S344R S344R], the figure is -7.9.

The target in the next assay is NEDD4_WW_2_P46934_765_803. The assay is described as above. Conditions: number of wild-type / mutant comparisons summed (bounds the score): 6; paper call: enhanced; wild-type window: ….
YMHKDAKKGFIRLDMSEFQEGHEVAKFIGSPPGYVGHEEGG [R417G R417G]: the mutation enrichment score is 6.

The target of another assay is WWTR1_WW__Q9GZV5_122_160. The assay is described as above. Conditions: number of wild-type / mutant comparisons summed (bounds the score): 6; paper call: no_effect; wild-type window: ….
WWTR1_WW__Q9GZV5_122_160, sequence (chain, as listed by the source): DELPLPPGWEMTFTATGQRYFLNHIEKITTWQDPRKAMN
For YMHKDAKKGFIRLDMSEFQEGHEVAKFIGSPPGYVGHEEGG [R417G R417G], the mutation enrichment score came out at 3.

A further assay addresses T1, MSN_FERM_1_P26038_1_322. The description is as above. As to conditions: number of wild-type / mutant comparisons summed (bounds the score): 12; paper call: no_effect; wild-type window: ….
On to TDTILFIRAARRVHSGTYQVMVRIENMEDKATLVLQVVDKP [T1046M T1046M], for which the mutation enrichment score is -2.
The same measure, in the same setting: the same measure for TDTILFIRAARRVHSGTYQVRVRIENMEDKATLVLQVVDKP [T1046R T1046R]: -2.

Another assay addresses T2, RDX_FERM_1_P35241_5_295. The assay is described as above. As to conditions: number of wild-type / mutant comparisons summed (bounds the score): 12; paper call: no_effect; wild-type window: ….
Turning to TDTILFIRAARRVHSGTYQVMVRIENMEDKATLVLQVVDKP [T1046M T1046M], the mutation enrichment score was -2.
Still for that read-out and setting: as for TDTILFIRAARRVHSGTYQVRVRIENMEDKATLVLQVVDKP [T1046R T1046R], the figure is -2.

In the next assay the target is SMURF2_WW_3_Q9HAU4_298_330. The assay is described as above. As to conditions: number of wild-type / mutant comparisons summed (bounds the score): 12; paper call: diminished; wild-type window: ….
Turning to SAPPLSHTPSSDFQPPYFPPRYQPLPYHQSQDPYSHVNDPY [P73R P73R], the mutation enrichment score was -9.
Still for that read-out and setting: as for HGKEDIKVIPNPPPDHWALVRGLPAYVAQNGLICNIMNAPA [S344R S344R], the figure is -12.

Another assay deals with NEDD4_WW_2_P46934_765_803. The assay is described as above. Conditions: number of wild-type / mutant comparisons summed (bounds the score): 12; paper call: no_effect; wild-type window: ….
For the molecule HGKEDIKVIPNPPPDHWALVRGLPAYVAQNGLICNIMNAPA [S344R S344R], the mutation enrichment score was -4.

Still in this assay, the particulars now being: number of wild-type / mutant comparisons summed (bounds the score): 24; paper call: diminished; wild-type window: ….
Take SPNTGPYPSEQALPIPGTPPRNYDSLRLQPLDVIESDSEGD [P618R P618R]: the mutation enrichment score is -16.

The next assay deals with WWTR1_WW__Q9GZV5_122_160. Described as above. As to conditions: number of wild-type / mutant comparisons summed (bounds the score): 6; paper call: diminished; wild-type window: ….
Regarding SPNTGPYPSEQALPIPGTPPRNYDSLRLQPLDVIESDSEGD [P618R P618R], the mutation enrichment score was -6.

The target in a further assay is OXSR1___O95747_434_527. The description is as above. As to conditions: number of wild-type / mutant comparisons summed (bounds the score): 12; paper call: no_effect; wild-type window: ….
As to SAQSAESSSVAMTPTYMDSPGKDGAFFMEFVRSPRTASSAF [R1087G R1087G], the mutation enrichment score is 2.
